The record followed here is PubChem BioAssay AID360 (National Center for Advancing Translational Sciences (NCATS), 2006).

About 550 (1.1%) of roughly 48,000 compounds were called active. About 4% were inconclusive and are not listed. Cut-off read from the data, not from the text of the source: active = potency below about 15 µM; inconclusive = mostly about 16 µM to 33 µM; inactive = weaker than that. The list shows a part of the results. Where only a bound is given, the exact number is not on record here.
Potency is the fitted concentration of half-maximal effect.

The experiment has as its target Lysosomal acid glucosylceramidase (Homo sapiens) (UniProt P04062). The experiment in a line: Glucocerebrosidase.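 Note: the screen sought inhibitors.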 The following applies: purified enzyme, resorufin glucoside fluorescence (screen aimed at inhibitors), 20 min. An excerpt: NCGC Assay Overview: Beta-glucocerebrosidase catalyzes the hydrolysis of beta-glucocerebroside to glucose and ceramide. The inherited deficiency of beta-glucocerebrosidase results in Gaucher disease, which is characterized by a wide variety of symptoms including hepatosplenomegaly, anemia, thrombocytopenia, bony lesions and bone marrow infiltration with characteristic storage cells, known as Gaucher cells. There are also forms of the disorder affecting the central nervous system. Patients with the same genotypes can manifest with diverse clinical presentations and it is believed that improper folding and trafficking of beta-glucocerbrosidase may contribute to the phenotypes observed. Low molecular weight molecules, acting as chaperones, may potentially restore trafficking of misfolded beta-glucocerebrosidase from the endoplasmic reticulum to the lysosomes, thereby enhancing functional lysosomal beta-glucocerebrosidase activity. Using normal beta-glucocerebrosidase, an assay was developed to screen for small molecule inhibitors that could potentially act as molecular chaperones on the mutant forms [developed with NIH investigator Dr. Ellen Sidransky's laboratory]. Two pro-fluorescent substrates were chosen for two screens against a small molecule library. One beta-glucocerebrosidase assay used Resorufin beta-D-Glucopyranoside (Marker Gene Technology Inc.), generating a red fluorescent product. The second assay used Fluorescein di-beta-D-Glucopyranoside, generating a blue fluorescent product. […] The IC50 values of Conduritol B Epoxide, a known glucocerebrosidase inhibitor, were determined to be 87.5 uM and 117 uM, respectively. The use of two difference pro-fluorescent substrates in the screens helped to eliminate false positives. All compounds were screened in a titration series resulting in AC50s (e.g., IC50s or EC50s).
Chain of UniProt P04062 (P04062 whole entry, looked up): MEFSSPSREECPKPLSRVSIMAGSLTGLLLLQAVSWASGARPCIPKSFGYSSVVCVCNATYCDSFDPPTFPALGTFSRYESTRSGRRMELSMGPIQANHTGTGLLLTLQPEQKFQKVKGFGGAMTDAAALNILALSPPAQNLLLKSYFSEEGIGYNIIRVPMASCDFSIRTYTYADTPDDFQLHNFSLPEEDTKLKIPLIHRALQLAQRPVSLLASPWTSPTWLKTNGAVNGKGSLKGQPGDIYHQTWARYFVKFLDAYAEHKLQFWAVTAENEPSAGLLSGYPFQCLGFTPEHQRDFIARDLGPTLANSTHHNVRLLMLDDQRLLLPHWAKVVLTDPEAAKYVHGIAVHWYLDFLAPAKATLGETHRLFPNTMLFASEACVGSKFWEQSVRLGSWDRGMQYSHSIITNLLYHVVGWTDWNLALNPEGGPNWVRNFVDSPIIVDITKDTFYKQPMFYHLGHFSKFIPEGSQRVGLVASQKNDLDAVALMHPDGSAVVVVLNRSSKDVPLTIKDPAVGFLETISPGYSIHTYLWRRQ
NCGC Assay Protocol Summary: Both enzyme and substrate were diluted in buffer composed of 50mM citric acid/KH2PO4, 10mM sodium taurocholate and 0.01% tween-20 at pH 5.9. The final concentration of the enzyme was 0.2 nM in both assays. The compound library was titrated in 7 to 15 concentrations for the primary screens with a final concentration ranging from 0.6 nM to 50 uM. This particular assay protocol is for the "red" substrate, and it was performed in 1536-well plate format as follows: Red fluorescence substrate assay: 2 uL enzyme 23 nL compound 1 uL substrate (final concentration of 30 uM) Incubate at room temperature (RT) for 20 minutes Read the plate in Viewlux plate reader (Ex=548(7) and Em=600(10)).
For the compound `COc1ccc(N2CCN(C(CNC(=O)c3ccc4c(c3)OCO4)c3cccnc3)CC2)cc1` (stereo unspecified), the Potency was inactive: > 76.9 µM.
Turning to `CC12CCCCC1c1ccccc1C(=NCC(=O)O)N2` (stereo unspecified), the Potency result was “inactive”.
As for `C=CCn1c(CNC(=O)c2ccccc2C)nnc1SCC(=O)NC1CCCC1`, the figure is inactive: > 76.9 µM.
As for `N#CC1(c2ccccc2)CCCN1C(=O)c1ccc(Br)o1` (stereo unspecified), the figure is inactive: > 76.9 µM.
As to `Cc1cc(NS(=O)(=O)Cc2ccccc2)no1`, the Potency is inactive: > 76.9 µM.
As for `COc1ccc(CN2C(=O)C(O)(CC(=O)c3c(C)n[nH]c3C)c3ccccc32)cc1OC` (stereo unspecified), the figure is inactive: > 76.9 µM; as for `CCc1ccccc1-n1cnc2cc(C(=O)O)ccc21`, inactive: > 76.9 µM.
In the case of `Cc1noc(C)c1CSCC(=O)OCC(=O)N1CC(=O)Nc2ccccc21` it was inactive: > 76.9 µM.
As for `CN(C)CCNC(=O)C(C(=O)c1ccccc1)n1ccccc1=O` (stereo unspecified), the figure is inactive: > 76.9 µM; as for `COc1ccc(C(=O)C2CCN(C(=O)c3ccco3)CC2)cc1`, inactive: > 76.9 µM; as for `CN(c1cc(=O)n2ccccc2n1)C1CCCCC1`, inactive: > 76.9 µM.
Turning to `COCc1[nH]nc2c1C(c1c(F)cccc1Cl)C(C#N)=C(N)O2` (stereo unspecified), the Potency was inactive: > 76.9 µM.
In the case of `COC(=O)[C@H](CCSC)NC(=O)Nc1ccc(C)cc1` it was inactive: > 76.9 µM; in that of `Cc1nc2c(cc(Oc3ccc(S(=O)(=O)N4CCOCC4)cn3)c3ccsc32)s1`, inactive: > 76.9 µM.
In the case of `COc1ccc(NC2=NCC(=O)N2c2ccccc2F)c(OC)c1` it was inactive: > 76.9 µM; in that of `O=C(c1ccccc1)c1ccc(OCC(O)CN2CCCCC2)cc1` (stereo unspecified), inactive: > 76.9 µM.
For the compound `O=C(NCc1ccco1)c1cc(-c2cccnc2)nc2ccc(Cl)cc12`, the Potency is inactive: > 76.9 µM.
In the case of `CCCOCC1CC2(SC(=Nc3ccc(C)cc3)NC2=O)C(=O)O1` (stereo unspecified), the Potency is inactive: > 76.9 µM.
As for `CCOc1c(C(N)=O)c(-c2ccccc2)c2c(=O)[nH]c3ccccc3n12`, the figure is inactive: > 76.9 µM; as for `COc1cc(/C=c2\sc3nc(-c4ccncc4)nn3c2=O)ccc1OC(C)=O`, inactive: > 76.9 µM.
For the compound `Cc1c2c(nc3nc4ccccc4n13)CC(C)(C)CC2=O`, the Potency was inactive: > 76.9 µM.
As for `COCCn1nnnc1CN(CCCN1CCOCC1)Cc1cc2c(C)ccc(C)c2[nH]c1=O`, the figure is inactive: > 76.9 µM.
As to `CC(C)CC(=O)N1CCN(S(=O)(=O)c2ccc(F)cc2)CC1`, the Potency was inactive: > 76.9 µM.
In the case of `c1cncc(CNC2CCCc3ccccc32)c1` (stereo unspecified) it was inactive: > 76.9 µM.
In the case of `CCOC(=O)C1CCN(Cc2ccc(C(=O)OC)cc2)CC1` it was inactive: > 76.9 µM; in that of `Cn1c(=O)c2c(-c3ccccc3)n(-c3ccccc3O)cc2n(C)c1=O`, inactive: > 76.9 µM; in that of `CC1(C)Cc2c(sc3nc(-c4cc5ccccc5o4)n(N)c(=O)c23)CO1`, inactive: > 76.9 µM.
Take `CCCCC(=O)Nc1sc2c(c1C(N)=O)CCC2`: the Potency is inactive: > 76.9 µM.
As for `CCOC(=O)Cc1csc2nc3sc(C)c(C)c3c(=O)n12`, the figure is inactive: > 76.9 µM.
In the case of `COc1ccc(S(=O)(=O)N2CCCC(C(=O)N3CCCCCC3)C2)cc1` (stereo unspecified) it was inactive: > 76.9 µM; in that of `O=C(Nc1scc(-c2ccc(F)cc2)c1C(=O)O)c1ccco1`, inactive: > 76.9 µM.
With `COc1ccc(C(=O)Nc2ncc3c(n2)CC(c2ccco2)CC3=O)cc1` (stereo unspecified), the Potency is inactive: > 76.9 µM.
As for `COc1ccccc1CNC(=O)CCNC(=O)Cn1ccc2ccccc2c1=O`, the figure is inactive: > 76.9 µM.
With `O=C(Cc1cccs1)N1CCN(c2nc(-c3ccc(Cl)cc3)cs2)CC1`, the Potency was inactive: > 76.9 µM.
Turning to `CCCCCCn1c(N2CCN(c3ccccc3)CC2)nc2c1c(=O)n(C)c(=O)n2C`, the Potency is inactive: > 76.9 µM.
As for `CCOc1ncccc1C(=O)Nc1ccc2c(C)cc(=O)oc2c1`, the figure is inactive: > 76.9 µM; as for `O=C(c1cccc(Cl)c1)N1CCN(Cc2ccncc2)CC1`, inactive: > 76.9 µM; as for `COCCn1nnnc1CN1C2CCCC1CC(NC(C)=O)C2` (stereo unspecified), inactive: > 76.9 µM.
As for `COC(=O)c1cccc(NC(=O)C2COc3ccccc3O2)c1` (stereo unspecified), the figure is inactive: > 76.9 µM; as for `O=C(CSc1nc(-c2ccco2)cc(C(F)(F)F)n1)N1CCSCC1`, inactive: > 76.9 µM; as for `Cc1ccc(S(=O)(=O)N(Cc2ccc(F)cc2)Cc2ccco2)cc1`, inactive: > 76.9 µM.
In the case of `N#Cc1cc2c(nc1SCc1ccncc1)CCC2` it was inactive: > 76.9 µM; in that of `O=C(NCCC1=CCCCC1)c1cnccn1`, inactive: > 76.9 µM; in that of `c1ccc(Nc2ncnc3c2oc2ccccc23)cc1`, inactive: > 76.9 µM.
For the compound `Cc1cc(C)c2nc(N)sc2c1`, the Potency was inactive: > 76.9 µM.
In the case of `CCOc1cccc(/C(O)=C2/C(=O)C(=O)N(CCN3CCOCC3)C2c2cccnc2)c1` (stereo unspecified) it was inactive: > 76.9 µM; in that of `CC(=O)c1ccc(NC(=O)C2CCC(C)NC2=O)cc1` (stereo unspecified), inactive: > 76.9 µM.
On to `CCS(=O)(=O)NCCCc1ccccc1`, for which the Potency is inactive: > 76.9 µM.
In the case of `CCOCCCNC(=O)C(C)NS(=O)(=O)c1ccc(C)cc1` (stereo unspecified) it was inactive: > 76.9 µM; in that of `CCSc1nnc(NC(=O)c2cccc(OCc3c(C)noc3C)c2)s1`, “inactive”.
As for `CCn1c(=O)cc(SCC(=O)NCc2ccccn2)c2ccccc21`, the figure is inactive: > 76.9 µM; as for `CCS(=O)(=O)Nc1ccc(Cc2ccncc2)cc1`, inactive: > 76.9 µM; as for `CC1(C)Cc2c(c(=S)nc(-c3ccccc3)n2CCO)CO1`, inactive: > 76.9 µM.
In the case of `COc1ccc(N2C(=O)NC3CC2(C)Oc2ccccc23)cc1OC` (stereo unspecified) it was inactive: > 76.9 µM; in that of `CC(C)OCCCNC(=O)NC12CC3CC(CC(C3)C1)C2`, inactive: > 76.9 µM; in that of `COc1ccc(CNC(=O)CN2CCC(C(=O)c3ccc(OC)cc3)CC2)cc1`, inactive: > 76.9 µM.
`CCCOC(=O)c1ccc(Nc2cc(C)nc3ncnn23)cc1`: the Potency is inactive: > 76.9 µM.
In the case of `COc1ccc2c(c1)C1CC(C)(NC(=O)C1C(=O)c1ccccc1)O2` (stereo unspecified), the Potency is inactive: > 76.9 µM.
As for `CCN(CC)C(=O)CSc1nnc(-c2ccc(F)cc2)n1N`, the figure is inactive: > 76.9 µM; as for `O=C(c1ccc(Cl)cc1)c1ccc(OCC(=O)N2CCOCC2)cc1`, inactive: > 76.9 µM.
As for `O=C(CCc1ccc(S(=O)(=O)N2CCCCC2)cc1)c1nnc(-c2ccccc2)o1`, the figure is inactive: > 76.9 µM.
As for `Cc1ccc(-c2nnc(N(C)C(=O)c3ccccn3)s2)cn1`, the figure is inactive: > 76.9 µM; as for `Cc1cc(C)cc(NC(=O)C2CCN(c3nc(C)cc(C)n3)CC2)c1`, inactive: > 76.9 µM; as for `COc1ccc2[nH]c(=O)c(-c3noc(-c4ccc(F)cc4)n3)cc2c1`, inactive: > 76.9 µM.
Turning to `Cc1ccc(-c2csc3nc(=O)c(C)nn23)cc1`, the Potency was inactive: > 76.9 µM.
Regarding `Cc1ccc(-n2c(Cc3cccn3C)nnc2SCC(=O)Nc2nnc(C)s2)cc1`, the Potency result was “inactive”.
As for `O=C(O)c1ccc2c(c1)nnn2C1CCCCC1`, the figure is inactive: > 76.9 µM; as for `O=C(Nc1ccc2c(c1)OCO2)C1CCN(C(=O)c2cccs2)CC1`, inactive: > 76.9 µM.
In the case of `COc1ccc(CC(=O)NC(C)c2nnc(SCC(=O)Nc3nc(C)cs3)n2C)cc1` (stereo unspecified) it was inactive: > 76.9 µM.
`COC(=O)c1cc2c(=O)n3ccccc3nc2n(Cc2cccnc2)c1=N`: the Potency is inactive: > 76.9 µM.
In the case of `O=C(Oc1cccc(N2C(=O)CCC2=O)c1)C1CC(=O)N(c2ccc(F)cc2)C1` (stereo unspecified) it was inactive: > 76.9 µM.
For the compound `CCC(C)NC(=O)C1CCC(=O)N(c2cc(OC)c(OC)c(OC)c2)C1c1ccc(OC)cc1` (stereo unspecified), the Potency was inactive: > 76.9 µM.
Take `CCOC(=O)C1CCN(S(=O)(=O)c2ccc(-n3cnnn3)c(C)c2)CC1`: the Potency is inactive: > 76.9 µM.
As for `CCOC(=O)N1CCC(Nc2nc3ccccc3nc2NS(=O)(=O)c2ccc(Cl)cc2)CC1`, the figure is inactive: > 76.9 µM.
As for `CC1(O)c2ccccc2C(=O)N1Cc1ccccc1` (stereo unspecified), the figure is inactive: > 76.9 µM.
Regarding `COc1ccc(CNC(=O)C2CCCN(S(=O)(=O)c3cc(C)ccc3OC)C2)cc1` (stereo unspecified), the Potency was inactive: > 76.9 µM.
As to `Cc1sc2nc(CN3CCN(S(=O)(=O)c4cccc5nonc45)CC3)[nH]c(=O)c2c1C`, the Potency was inactive: > 76.9 µM.
In the case of `CCOC(=O)C(C)Sc1nnc(CNC(=O)c2ccc(OC)cc2)n1C1CCCCC1` (stereo unspecified) it was inactive: > 76.9 µM; in that of `COC(=O)c1cc(-c2ccccc2)n(CC(=O)O)c1C`, inactive: > 76.9 µM.
Regarding `COc1cc(NC(=O)c2ncn[nH]2)cc(OC)c1OC`, the Potency was inactive: > 76.9 µM.
As for `COc1ccc(N(CC(=O)Nc2cccc(OC)c2)S(=O)(=O)c2c(C)nn(C)c2C)cc1`, the figure is inactive: > 76.9 µM; as for `O=C(c1cc2ccccc2o1)c1nc2c(n1O)CCCCC2`, inactive: > 76.9 µM.
As for `Cc1cccn2c(=O)c3cc(C#N)c(=O)n(-c4c(C)n(C)n(-c5ccccc5)c4=O)c3nc12`, the figure is inactive: > 76.9 µM.
In the case of `COc1ccc(C2=CSC3=NCCN23)cc1F` it was inactive: > 76.9 µM; in that of `Cc1ccc(OCC(O)CN2CCN(CC(O)COc3ccc(C)cc3)CC2)cc1` (stereo unspecified), inactive: > 76.9 µM; in that of `COC(=O)c1ccccc1NC(=O)CSc1nc(O)cc(=O)n1C1CCCC1`, inactive: > 76.9 µM.
For `O=C(c1cnccn1)N(c1ccccc1)C1(C(=O)NC2CCCC2)CCCCC1`, the Potency was inactive: > 76.9 µM.
Take `CCCCCn1c(=O)[nH]c2cc(C(=O)NCc3ccc4c(c3)OCO4)ccc2c1=O`: the Potency is inactive: > 76.9 µM.
As for `Nc1nnc(-c2ccccc2Cl)s1`, the figure is inactive: > 76.9 µM; as for `Cc1ccc(S(=O)(=O)NC(CC(=O)O)c2ccco2)cc1` (stereo unspecified), inactive: > 76.9 µM.
As for `Cc1nc(Nc2cccc(C(F)(F)F)c2)nc2c1C(=O)CC(C)C2` (stereo unspecified), the figure is inactive: > 76.9 µM.
